A compilation of properties of binary mixtures (doi:10.1016/j.molliq.2015.01.031)
Some of these densities may be calculated back from excess volumes.

Assay: xn = mol fraction of the nth substance listed
Conditions: 101 kPa

CCCC[n+]1ccn(C)c1.F[B-](F)(F)F + OCCCO
x2 = 0
Conditions	mass density [kg/m3]
298.15 K	1198.8
303.15 K	1195.2
308.15 K	1191.6
313.15 K	1188
318.15 K	1184.5
323.15 K	1181

OCCCO + CCCC[n+]1ccn(C)c1.F[B-](F)(F)F
mass density [kg/m3]
Conditions	x1 = 0.1026	x1 = 0.2072	x1 = 0.3172	x1 = 0.3943	x1 = 0.503	x1 = 0.6011	x1 = 0.7009	x1 = 0.8006	x1 = 0.8979	x1 = 1
298.15 K	1192.8	1185.8	1176.1	–	1151.4	1137.3	1119.5	–	1079.3	1049.7
303.15 K	–	1182.1	1172.4	1159.9	1147.7	1133.6	1115.8	1097.9	1075.9	1046.5
308.15 K	1185.6	1178.5	1168.7	1156.2	1144	1130	1112.3	1094.4	–	1043.4
313.15 K	1182	1174.9	–	–	–	1126.3	1108.7	1091	1069.1	1040.2
318.15 K	1178.5	1171.3	1161.4	1148.9	1136.7	–	–	1087.5	1065.8	1037.1
323.15 K	1175	1167.7	1157.8	–	1133.1	1119.2	1101.6	1084	–	1033.9

CC(O)CO (stereo not drawn) + CCCC[n+]1ccn(C)c1.F[B-](F)(F)F
mass density [kg/m3]
Conditions	x1 = 0.1182	x1 = 0.2003	x1 = 0.3122	x1 = 0.4189	x1 = 0.5064	x1 = 0.6165	x1 = 0.695	x1 = 0.797	x1 = 0.8966	x1 = 1
298.15 K	1190.4	–	–	1160.4	1147	1127.7	1111.8	1089.6	1064.9	1032.6
303.15 K	1186.8	–	1169	–	1142.9	1123.5	–	1085.5	1061.2	1029
308.15 K	–	–	–	1152.1	1138.7	1119.5	1103.8	1081.5	1057.2	1025.2
313.15 K	1179.6	–	1161.4	1147.9	1134.5	–	1099.8	1077.5	–	1021.4
318.15 K	1176.1	–	–	1143.5	1130.3	1111.2	1095.7	1073.4	–	1017.6
323.15 K	1172.5	1165.3	1153.6	1139.4	1126.2	–	1091.6	1069.4	1045	1013.8

CCCC[n+]1ccn(C)c1.F[B-](F)(F)F + CC(O)CO
x2 = 0
Conditions	mass density [kg/m3]
303.15 K	1195.2
318.15 K	1184.5
323.15 K	1181
